In article PMC12002121:
Results are given in words; binding and its absence hold for the method and conditions named. In cells and extracts the contact can be indirect. Some binding calls cover weakened binding; strength is not graded here. Each block holds one substance with its values, some of them ahead of it.

Protein sequences, listed by entry. Tags and fused reporters are not part of them. Lines headed by an entry give the natural chain unless they say otherwise; changes in a name come on top. Residues count along the entry.
UniProt Q15116, residues 25-288: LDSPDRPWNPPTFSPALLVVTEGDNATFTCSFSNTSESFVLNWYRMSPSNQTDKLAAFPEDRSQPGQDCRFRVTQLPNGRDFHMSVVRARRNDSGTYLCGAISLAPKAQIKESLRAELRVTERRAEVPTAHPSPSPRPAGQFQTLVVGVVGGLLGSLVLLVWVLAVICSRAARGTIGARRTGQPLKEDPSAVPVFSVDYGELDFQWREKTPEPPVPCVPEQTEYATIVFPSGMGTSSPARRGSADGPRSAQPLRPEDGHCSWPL
UniProt Q9UPU5: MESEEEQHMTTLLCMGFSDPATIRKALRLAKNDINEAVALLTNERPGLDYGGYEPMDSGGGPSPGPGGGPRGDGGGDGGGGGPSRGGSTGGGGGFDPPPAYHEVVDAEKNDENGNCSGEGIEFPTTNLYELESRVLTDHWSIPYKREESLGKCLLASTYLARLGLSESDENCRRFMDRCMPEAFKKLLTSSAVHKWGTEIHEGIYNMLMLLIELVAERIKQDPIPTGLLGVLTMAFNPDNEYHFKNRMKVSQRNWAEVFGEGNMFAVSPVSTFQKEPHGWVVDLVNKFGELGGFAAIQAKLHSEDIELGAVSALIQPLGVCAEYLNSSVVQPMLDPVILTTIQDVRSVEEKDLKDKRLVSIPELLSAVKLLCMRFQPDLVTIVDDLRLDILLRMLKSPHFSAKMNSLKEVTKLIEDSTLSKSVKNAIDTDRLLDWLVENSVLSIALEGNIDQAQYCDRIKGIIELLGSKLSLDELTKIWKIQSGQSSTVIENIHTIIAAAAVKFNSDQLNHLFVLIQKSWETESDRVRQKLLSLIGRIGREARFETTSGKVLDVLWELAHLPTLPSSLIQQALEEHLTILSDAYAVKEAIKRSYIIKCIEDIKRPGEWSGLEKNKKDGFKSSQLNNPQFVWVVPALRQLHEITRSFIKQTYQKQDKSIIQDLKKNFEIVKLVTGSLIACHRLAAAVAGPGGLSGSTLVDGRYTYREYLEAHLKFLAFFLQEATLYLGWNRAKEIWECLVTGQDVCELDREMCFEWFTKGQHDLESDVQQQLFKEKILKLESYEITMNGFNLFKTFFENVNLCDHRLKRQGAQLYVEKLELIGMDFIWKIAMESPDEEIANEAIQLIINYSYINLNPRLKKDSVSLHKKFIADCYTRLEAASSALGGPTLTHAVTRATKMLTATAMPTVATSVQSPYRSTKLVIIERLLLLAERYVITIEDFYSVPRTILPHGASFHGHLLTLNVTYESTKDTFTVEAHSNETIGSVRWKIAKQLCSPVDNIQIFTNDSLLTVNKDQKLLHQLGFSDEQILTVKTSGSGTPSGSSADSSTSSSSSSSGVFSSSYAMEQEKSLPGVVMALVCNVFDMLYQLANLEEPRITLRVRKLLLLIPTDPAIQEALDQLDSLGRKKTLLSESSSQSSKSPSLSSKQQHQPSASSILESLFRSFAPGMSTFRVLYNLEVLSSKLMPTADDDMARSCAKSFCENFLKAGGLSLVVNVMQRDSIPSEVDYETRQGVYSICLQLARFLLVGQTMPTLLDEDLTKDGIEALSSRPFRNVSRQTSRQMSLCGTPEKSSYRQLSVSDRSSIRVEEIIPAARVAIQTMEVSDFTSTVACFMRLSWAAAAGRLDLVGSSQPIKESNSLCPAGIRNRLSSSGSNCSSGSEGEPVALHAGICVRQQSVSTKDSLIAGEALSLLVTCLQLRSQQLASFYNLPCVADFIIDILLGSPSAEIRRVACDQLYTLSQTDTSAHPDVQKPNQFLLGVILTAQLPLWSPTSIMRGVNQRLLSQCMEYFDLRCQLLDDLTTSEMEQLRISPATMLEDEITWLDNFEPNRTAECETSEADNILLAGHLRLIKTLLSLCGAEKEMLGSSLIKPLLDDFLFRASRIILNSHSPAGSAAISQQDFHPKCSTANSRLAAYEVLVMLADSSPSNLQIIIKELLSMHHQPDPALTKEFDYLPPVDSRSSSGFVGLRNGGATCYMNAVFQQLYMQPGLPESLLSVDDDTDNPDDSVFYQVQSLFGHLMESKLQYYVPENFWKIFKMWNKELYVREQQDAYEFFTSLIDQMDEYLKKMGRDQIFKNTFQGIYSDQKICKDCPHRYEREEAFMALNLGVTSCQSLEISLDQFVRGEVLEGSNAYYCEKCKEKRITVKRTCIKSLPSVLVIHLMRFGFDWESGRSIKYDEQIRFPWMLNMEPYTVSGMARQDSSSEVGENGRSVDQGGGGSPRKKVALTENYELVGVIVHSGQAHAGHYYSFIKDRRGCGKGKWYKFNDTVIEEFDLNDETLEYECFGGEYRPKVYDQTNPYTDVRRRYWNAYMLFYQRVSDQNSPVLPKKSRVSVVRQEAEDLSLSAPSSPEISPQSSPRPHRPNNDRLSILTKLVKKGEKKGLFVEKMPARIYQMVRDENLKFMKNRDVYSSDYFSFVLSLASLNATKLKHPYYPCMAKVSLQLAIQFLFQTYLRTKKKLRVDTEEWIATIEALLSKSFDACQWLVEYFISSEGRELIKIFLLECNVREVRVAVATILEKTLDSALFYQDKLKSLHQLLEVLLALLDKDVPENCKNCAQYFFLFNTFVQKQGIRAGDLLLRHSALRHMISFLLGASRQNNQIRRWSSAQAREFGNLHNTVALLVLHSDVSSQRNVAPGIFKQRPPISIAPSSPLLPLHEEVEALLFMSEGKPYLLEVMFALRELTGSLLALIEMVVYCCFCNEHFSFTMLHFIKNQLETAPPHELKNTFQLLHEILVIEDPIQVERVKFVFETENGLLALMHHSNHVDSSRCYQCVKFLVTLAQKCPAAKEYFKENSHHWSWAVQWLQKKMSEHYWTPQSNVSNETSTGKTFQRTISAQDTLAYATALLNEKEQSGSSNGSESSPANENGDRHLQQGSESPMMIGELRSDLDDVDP

What was measured:
[1] = molecular target: programmed cell death-1 (PD-1), endogenous (human (endogenous in PBMCs and Jurkat T cells)) (UniProt Q15116); experiment: co-IP; Jurkat T cells ectopically transduced with GFP-USP24 (fig. S3A); IP-Western
GFP-PD-1 (WT-PD-1) = GFP-PD-1 (WT-PD-1) (UniProt Q15116); experiment: co-IP; HEK293 cells transfected with GFP-PD-1 (WT-PD-1) and USP24 constructs; IP of GFP-PD-1, Western blot (fig. S3B, Fig. 3E)
[2] = molecular target: ubiquitin-specific peptidase 24 (USP24), endogenous (human (endogenous in PBMCs and Jurkat T cells)) (UniProt Q9UPU5); experiment: co-IP; IP of endogenous USP24 (PBMCs stimulated with anti-CD3/CD28; Jurkat T cells stimulated with PMA/ionomycin 6 h) or of endogenous PD-1 (Jurkat T cells), Western blot; IP buffer 50 mM tris-HCl pH 7.5, 150 mM NaCl, 1% NP-40, 5 mM EDTA, 4°C; IL-6 treatment increased the interaction (fig. S4D)
[3] = molecular target: programmed cell death-1 (PD-1), endogenous (human (endogenous in PBMCs and Jurkat T cells)) (UniProt Q15116); experiment: as above

binding (GFP-PD-1 (WT-PD-1)): binds
Substance: GFP-USP24 (wild-type USP24, USP24-WT) (from UniProt Q9UPU5 1-2620) (enzyme)
binding [1]: binds

binding (GFP-PD-1 (WT-PD-1)): no binding
Substance: USP24 C-terminal deletion construct (USP24-ΔC, amino acids 1 to 2050) (from UniProt Q9UPU5 1-2050) (domain or fragment)

Substance: programmed cell death-1 (PD-1), endogenous (from UniProt Q15116 25-288) (receptor)
binding [2]: binds

Substance: ubiquitin-specific peptidase 24 (USP24), endogenous (from UniProt Q9UPU5 1-2620) (enzyme)
binding [3]: binds
